This is an account of results in the RNAGym collection of RNA variant scans (doi:10.7554/elife.90254).

Sequences and labels used below:
B1: LINE1-mini (parent)
chain: GGCAGAGCUCAACACAGCGUGGCAAAGUGGCUGUGGCUAGACUGCC

The source gives no read counts; variants with many changes may rest on few reads.

The variants in this series derive from B1. Kind of series: self-cleavage, relative activity (ratio to wild type); higher = more cleavage; in vitro, sequencing; the parent is a self-cleaving ribozyme.
In the case of GACAGAGCUCAACACAGCGUGGCAAAAAGGCUGUGUCUAGACUGCC, the self-cleavage turned out to be 0.21. For GACAGAGCUCAACACAGCAUGGCAAAGUGGCUGUGGUUAGACUGCC, the self-cleavage came to 0.56.

Take GACAGAGCUCAACACAGCGUGGCAAAGUCGCUGUGGCUAGACUGGC: the self-cleavage came out at 0.95.

As for GACAGAACUCAACACAGCGUGGCAAAGUGGAUGUGGCUAGACAGCC, the self-cleavage is 0.3.

Consider GACAGAGCUCAACACAGCGUGGCAAAUCGGCUGUGGCUAGACAGCC, for which the self-cleavage was 0.22. For GACAGAGCUCAACACAGCGUGACGAAGUGGCUGUGGCUAUACUGCC the value was 0.21; for GACAGAGCUCAACACAUCAUGGCAAAGUGGCUGUGGCUAGACUGUC, 0.54.

With GACAGAGCUCAACACAGCGUUGCCAAGUGGCCGUGGCUAGACUGCC, the self-cleavage was determined as 0.14. The result for GACAGAUCUAAACACAGCGUGGCAAAGUGUCAGUGGCUCGACUACC reads 0.03. The result for GACAGAGCUCAACACAUCGUGGCAAAGUGGCUGUGACUAGACUUCC reads 0.07.

With GACAGACCUCAACGCACCGUGGCAAAGUGGCUGUGGCUAGAAAGCC, the self-cleavage stood at 0.78. The result for GACAGAGCUCAACACAGCGUGGCAAAGUCGUUGUGGGUAGACUGCC reads 0.09; that for GACAGAGCUCAACACAGCGUGGCAAAGUGGCUGUACCUAGCCUGCC, 0.12. For GACAGAGCUCAACACAGCGUGUCAGAAUGGUUGUGGCUAGAGUGCC the value was 0. For GACAGAGCUCAACACAGCGUGUCAAAGUGGCUUUGGCUAGACUGCC the value was 0.17; for GACAGACCUCAACACAGCGUGGCAAAGUCGCUGUGGCUUGACCGCC, 0.04; for GACAGAGCUCAACACAGCGUUGCAAAGUGGCUGUGGCUAGAAUGCC, 0.11. Consider GACAGAACUCAACACAGCGUGGCAAAGUGGCUGUGGCUAGAUGGCC, for which the self-cleavage was 0.56. The result for GACAGAGCUCAACACAGCGUGGCAAAGUGGCUGUGACUAGGCUGCC reads 0.49.

Consider GACAGACCUCAACACAGCGUGGCGAAGUGGCUGUGUCUAGACUGCC, for which the self-cleavage is 0.5. The result for GACAGAGCUCAACACAGCGUGACACAGUGGCUGUGGCUAGCCUGCC reads 0.11; that for GACAGAUCUCAACACAGCUUGGCAAAGUGGCAGUGGCUAGACUGCC, 0.09. The result for GACAGAUCUCAACACAGAGUGGCAAAGUGGCUGUGGCUAGACUGCC reads 0.23; that for GACAGAGCUCAACACACCGUGGCAACGUGGCUGUGGCUAGACUGCC, 2.55. For the variant GACAGAGCUCAACACAGCUCGGCAAAGUGGCUGUGCCUACACUGCC, the self-cleavage amounted to 0.03. As to GACAGAGCUCAACACAGCGUUGCAAAGUGGCAGUGGCGAGACUGCA, the self-cleavage stood at 0.01. For GACAGAGCUCAACACAGCGUUGCAAAGUGGCUGUGGCUACACUGCC the value was 0.51. The result for GACAGAUCUCAACACAGCGUGGCAAAGUCGCUGUGCCUUGACUGCC reads 0.03. The result for GACAGAUCUCAACACAGCGCGGCAAAGUGGCUGUAGCUAGACUGCG reads 0.07; that for GACAGAGCUCAACACAGCGUUGCAAAGUGGAUGUGGGUAGACUACC, 0.02. For the variant GACAGAGCUCAACACAGCGUGCUAAAGUGUUUGUGGAUAGACUGCC, the self-cleavage came to 0.18.

Turning to GACAGAGCUCAACACAGCAUAGCAAAGUGGCUGUUGCUAGACUGCC, the self-cleavage is 0.61.

As for GACAGAGCUCAACACAGCGUGGCAAACUGGCUGUGGCAAGACAGCC, the self-cleavage amounted to 0.13.

GACAGAGCUCAACACAGCGUGCCAAAGUGGAUGUGGCUAGACUACC: the self-cleavage was found to be 0.12. For GACAGAUCUCAACUAAGCGUGGCAAAGUGGCUGUGGCUAGAUUGCC the value was 0.49; for GACAGAUCUCAACACAGCGCGGCAAAGUGGCUGUGGCUUGACUGCC, 0.18. The result for GACAGAGCUCAACACAUCGUGGCAAAGUGUCUGUGGCUAGACUGCC reads 0.13; that for GACAGAGCUCAACACAUCGUGGCAAAGUGGCUGUGGCUGGACUGCG, 0.06; that for GACAGAGCUCAACACAGCGUGGCAAACUGGAUGUGGCUAGACUGCC, 0.35. The result for GACAGAGCUCAACACAGCGUGGCAAACUGGUUGUGGCUAGACUGCC reads 0.13; that for GACAGAGCUCAACACAGCCUGGCAACGUGGCUGUGUCUAGACUGCC, 0.12. Turning to GACAGAGCUCAACACACCGUCGUAAAGUGGCUGUGGCUAGACUGUC, the self-cleavage turned out to be 0.13. For GACAGAACUCAACACAGCGUGGCAAAGUGGCUGUGCCUAGACUGCC the value was 0.44; for GACAGAGCUCAACACAGCGUUGCUAAGUGGCUGUGGCCAUACUGCC, 0.23; for GACAGAUCUCAACACUGCGUGUCAAAGUGGCUGUGGCUAGACUGCC, 0.43.

For GACAGAACUCAACAAAGCGCCGCAAACUGACUGUGGCUAGACUGCC, the self-cleavage came to 0.29.

With GACAGAGCUCAACACAGCAUGGCACAGUGGCCGUGGCUAGAGUGCC, the self-cleavage was 0.12. The result for GACAGAGCUCAACACAACGAGGCAACGUGGCUGUGGCUAGACUGCC reads 0.15; that for GACAGAGCUCAACACAGCGUAGCAAAGUGGCUGUGGCUCGACUGCC, 0.63. The result for GACAGAGCUCAACACAGCAUGGCAAAGUGGCCGUGGCUAGACUGCC reads 0.35; that for GACAGACCUCAACGCAGCGUGGCAAAGUGGCUGUGGCUUGACUGCC, 0.01.

GACAGAGCUCAACACAUCGUGGCAAAGUGGCUGUGGCUAGUCUGCC: the self-cleavage amounted to 0.09. For GACAGAGCUCAACACACCGUGGAAAAGUGGCUGUGGCUAGACUGCC the value was 0.82; for GACAGAGCUCAACACAGCCUGGCAAAGUGGCUGUGGCUAGACUGCA, 1.69. For GACAGAGCUCAACACAGCGUGACAAAGUGGUUGUGGCUAGACUGCC, the self-cleavage turned out to be 0.2.

GACAGAGCUCAACACAGCGUGGCAAAGUGUCUGUGGCUAGCCUUCC: the self-cleavage was determined as 0.08.
